Data from patent US20110319597A1 (CAPHALON AUSTRALIA, published 2011).

B1: TNFα dAb Fc variant S9K (Fc fusion, name in Kabat numbering)
chain: DIQMTQSPKSLSASVGDRVTITCRASQAIDSYLHWYQQKPGKAPKLLIYSASNLETGVPSRFSGSGSGTDFTLTISSLLPEDFATYYCQQVVWRPFTFGQGTKVEIKRV[human IgG1 Fc with changes left out]
B2: TNFα dAb Fc variant S10A (Fc fusion, name in Kabat numbering)
chain: DIQMTQSPSALSASVGDRVTITCRASQAIDSYLHWYQQKPGKAPKLLIYSASNLETGVPSRFSGSGSGTDFTLTISSLLPEDFATYYCQQVVWRPFTFGQGTKVEIKRV[human IgG1 Fc with changes left out]
B3: TNFα dAb Fc variant S10L (Fc fusion, name in Kabat numbering)
chain: DIQMTQSPSLLSASVGDRVTITCRASQAIDSYLHWYQQKPGKAPKLLIYSASNLETGVPSRFSGSGSGTDFTLTISSLLPEDFATYYCQQVVWRPFTFGQGTKVEIKRV[human IgG1 Fc with changes left out]
B4: TNFα dAb Fc variant S10Y (Fc fusion, name in Kabat numbering)
chain: DIQMTQSPSYLSASVGDRVTITCRASQAIDSYLHWYQQKPGKAPKLLIYSASNLETGVPSRFSGSGSGTDFTLTISSLLPEDFATYYCQQVVWRPFTFGQGTKVEIKRV[human IgG1 Fc with changes left out]
B5: TNFα dAb Fc variant S10Q (Fc fusion, name in Kabat numbering)
chain: DIQMTQSPSQLSASVGDRVTITCRASQAIDSYLHWYQQKPGKAPKLLIYSASNLETGVPSRFSGSGSGTDFTLTISSLLPEDFATYYCQQVVWRPFTFGQGTKVEIKRV[human IgG1 Fc with changes left out]
B6: TNFα dAb Fc variant S10H (Fc fusion, name in Kabat numbering)
chain: DIQMTQSPSHLSASVGDRVTITCRASQAIDSYLHWYQQKPGKAPKLLIYSASNLETGVPSRFSGSGSGTDFTLTISSLLPEDFATYYCQQVVWRPFTFGQGTKVEIKRV[human IgG1 Fc with changes left out]
B7: TNFα dAb Fc variant S10P (Fc fusion, name in Kabat numbering)
chain: DIQMTQSPSPLSASVGDRVTITCRASQAIDSYLHWYQQKPGKAPKLLIYSASNLETGVPSRFSGSGSGTDFTLTISSLLPEDFATYYCQQVVWRPFTFGQGTKVEIKRV[human IgG1 Fc with changes left out]
B8: TNFα dAb Fc variant S10K (Fc fusion, name in Kabat numbering)
chain: DIQMTQSPSKLSASVGDRVTITCRASQAIDSYLHWYQQKPGKAPKLLIYSASNLETGVPSRFSGSGSGTDFTLTISSLLPEDFATYYCQQVVWRPFTFGQGTKVEIKRV[human IgG1 Fc with changes left out]
B9: TNFα dAb Fc variant L11A (Fc fusion, name in Kabat numbering)
chain: DIQMTQSPSSASASVGDRVTITCRASQAIDSYLHWYQQKPGKAPKLLIYSASNLETGVPSRFSGSGSGTDFTLTISSLLPEDFATYYCQQVVWRPFTFGQGTKVEIKRV[human IgG1 Fc with changes left out]
B10: TNFα dAb Fc variant L11S (Fc fusion, name in Kabat numbering)
chain: DIQMTQSPSSSSASVGDRVTITCRASQAIDSYLHWYQQKPGKAPKLLIYSASNLETGVPSRFSGSGSGTDFTLTISSLLPEDFATYYCQQVVWRPFTFGQGTKVEIKRV[human IgG1 Fc with changes left out]
B11: TNFα dAb Fc variant L11Y (Fc fusion, name in Kabat numbering)
chain: DIQMTQSPSSYSASVGDRVTITCRASQAIDSYLHWYQQKPGKAPKLLIYSASNLETGVPSRFSGSGSGTDFTLTISSLLPEDFATYYCQQVVWRPFTFGQGTKVEIKRV[human IgG1 Fc with changes left out]
B12: TNFα dAb Fc variant L11D (Fc fusion, name in Kabat numbering)
chain: DIQMTQSPSSDSASVGDRVTITCRASQAIDSYLHWYQQKPGKAPKLLIYSASNLETGVPSRFSGSGSGTDFTLTISSLLPEDFATYYCQQVVWRPFTFGQGTKVEIKRV[human IgG1 Fc with changes left out]
B13: TNFα dAb Fc variant L11Q (Fc fusion, name in Kabat numbering)
chain: DIQMTQSPSSQSASVGDRVTITCRASQAIDSYLHWYQQKPGKAPKLLIYSASNLETGVPSRFSGSGSGTDFTLTISSLLPEDFATYYCQQVVWRPFTFGQGTKVEIKRV[human IgG1 Fc with changes left out]
B14: TNFα dAb Fc variant L11K (Fc fusion, name in Kabat numbering)
chain: DIQMTQSPSSKSASVGDRVTITCRASQAIDSYLHWYQQKPGKAPKLLIYSASNLETGVPSRFSGSGSGTDFTLTISSLLPEDFATYYCQQVVWRPFTFGQGTKVEIKRV[human IgG1 Fc with changes left out]
B15: TNFα dAb Fc variant S12A (Fc fusion, name in Kabat numbering)
chain: DIQMTQSPSSLAASVGDRVTITCRASQAIDSYLHWYQQKPGKAPKLLIYSASNLETGVPSRFSGSGSGTDFTLTISSLLPEDFATYYCQQVVWRPFTFGQGTKVEIKRV[human IgG1 Fc with changes left out]
B16: TNFα dAb Fc variant S12L (Fc fusion, name in Kabat numbering)
chain: DIQMTQSPSSLLASVGDRVTITCRASQAIDSYLHWYQQKPGKAPKLLIYSASNLETGVPSRFSGSGSGTDFTLTISSLLPEDFATYYCQQVVWRPFTFGQGTKVEIKRV[human IgG1 Fc with changes left out]
B17: TNFα dAb Fc variant S12Y (Fc fusion, name in Kabat numbering)
chain: DIQMTQSPSSLYASVGDRVTITCRASQAIDSYLHWYQQKPGKAPKLLIYSASNLETGVPSRFSGSGSGTDFTLTISSLLPEDFATYYCQQVVWRPFTFGQGTKVEIKRV[human IgG1 Fc with changes left out]
B18: TNFα dAb Fc variant S12D (Fc fusion, name in Kabat numbering)
chain: DIQMTQSPSSLDASVGDRVTITCRASQAIDSYLHWYQQKPGKAPKLLIYSASNLETGVPSRFSGSGSGTDFTLTISSLLPEDFATYYCQQVVWRPFTFGQGTKVEIKRV[human IgG1 Fc with changes left out]
B19: TNFα dAb Fc variant S12Q (Fc fusion, name in Kabat numbering)
chain: DIQMTQSPSSLQASVGDRVTITCRASQAIDSYLHWYQQKPGKAPKLLIYSASNLETGVPSRFSGSGSGTDFTLTISSLLPEDFATYYCQQVVWRPFTFGQGTKVEIKRV[human IgG1 Fc with changes left out]
B20: TNFα dAb Fc variant S12H (Fc fusion, name in Kabat numbering)
chain: DIQMTQSPSSLHASVGDRVTITCRASQAIDSYLHWYQQKPGKAPKLLIYSASNLETGVPSRFSGSGSGTDFTLTISSLLPEDFATYYCQQVVWRPFTFGQGTKVEIKRV[human IgG1 Fc with changes left out]

Molecular target: recombinant human TNFα (human, UniProt P01375 partial chain)
Assay: cell-based or functional assay

Chain of UniProt P01375 (P01375 77-233 limits assumed): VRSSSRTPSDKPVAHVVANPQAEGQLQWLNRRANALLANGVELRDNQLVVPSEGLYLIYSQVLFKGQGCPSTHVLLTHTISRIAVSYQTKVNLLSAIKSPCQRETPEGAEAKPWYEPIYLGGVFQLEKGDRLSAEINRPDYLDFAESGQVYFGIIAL

First: B1
Second: B2
The Standardized EC50, L929 neutralization assay (5-point) of the first is 1.9-fold higher: 1.23 µg/mL for the first, 0.661 µg/mL for the second.

First: B3
Second: B4
The Standardized EC50, L929 neutralization assay (5-point) of the first is 2.9-fold lower: 0.616 µg/mL for the first, 1.76 µg/mL for the second.

B5 and B6 are within 1.5-fold of each other in Standardized EC50, L929 neutralization assay (5-point): 1.42 µg/mL for the first, 1.28 µg/mL for the second.

Going from B7 to B8, the Standardized EC50, L929 neutralization assay (5-point) falls from 6.59 µg/mL to 2.72 µg/mL (2.4-fold).

Going from B9 to B10, the Standardized EC50, L929 neutralization assay (5-point) rises from 0.912 µg/mL to 1.64 µg/mL (1.8-fold).

Compared with B11, B12 is 3.7-fold higher in Standardized EC50, L929 neutralization assay (5-point): 2.77 µg/mL for the first, 10.2 µg/mL for the second.

First: B13
Second: B14
The Standardized EC50, L929 neutralization assay (5-point) of the first is 9.4-fold lower: 1.01 µg/mL for the first, 9.47 µg/mL for the second.

First: B15
Second: B16
The Standardized EC50, L929 neutralization assay (5-point) of the first is 3.2-fold higher: 0.796 µg/mL for the first, 0.252 µg/mL for the second.

Compared with B17, B18 is 1.6-fold higher in Standardized EC50, L929 neutralization assay (5-point): 1.07 µg/mL for the first, 1.76 µg/mL for the second.

Compared with B19, B20 is 1.8-fold higher in Standardized EC50, L929 neutralization assay (5-point): 0.822 µg/mL for the first, 1.44 µg/mL for the second.
